Test results published in the RNAGym collection of RNA variant scans (doi:10.1073/pnas.2313332121).
This sample is rich in variants without activity.

B1: TPR 5TU (parent)
chain: GGAUCUUCUCGAUCUAACAAAAAAGACAAAUCUGCCACAAAGCUUGAGAGCAUCUUCGGAUGCAGAGGCGGCAGCCUUCGGUGGCGCGAUAGCGCCAACGUUCUCAACUAUGACACGCAAAACGCGUGCUCCGUUGAAUGGAGUUUAUCAUG

Variants of: B1
Assay: polymerase ribozyme fitness, log enrichment relative to wild type (log ratio); higher = more active; in vitro selection for triplet polymerase activity
In short: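 After PCR construction and transcription, each subunit's mutant library from a heterodimeric triplet polymerase ribozyme was annealed with a biotinylated primer, the partner subunit and triplets. Incubation was frozen, at −7 °C, and extended constructs were gel-excised, bound to streptavidin beads and amplified by RT-PCR, in one selection round done in triplicate. Fitness is the logarithm of a genotype's enrichment divided by that of the wild type, from inverse-variance-weighted replicate averages of Illumina-sequenced inputs and outputs. The base of the logarithm is 2, and genotypes needed ≥10 input reads and ≥1 read per output.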

| Variant | polymerase ribozyme fitness (log ratio) |
| --- | --- |
| GGAUCUUCUCGAUCUAACAAAAAAGACAAAUCUGCCACAAAGCUUGAGCGUAUCUUGGGAUGCCGAGGCGGCAGCCUUCGGUGGCGCGAUAGCGCCAACGUGCUCAACUAUGACACGCAUAACGCGUGCUCCGUUGAAUGGAGUUUAUCAUU [A49C C51U C57G A64C U102G A120U G152U] | ≤ -4.2 |
| GGAUCUUCUCGAUCUAACAAAAAAGACAAAUCUGCCACAAAGCUUGAUAGCAUCUUCGGAUGCAGAGGCGGCAGCCUUCGGUGGCGCGAUAGCGCGAACGUUCUCAACUAUGACACGCAAAACGCGUGCUCCGUUGAAUGGAGUUUAUCAUG [G48U C96G] | -1.13 |
| GGAUCUUCUCGAUCUAACAAAAAAGACAAAUCUGCCACAAAGCUUGACAGCAUCAGCGGAUGCAGAGGCGGCAGCCUUCGGUGGCGCAAUAGCGCCAACGUUCUCAACUAUGACACGCCAAACGCGUGCUCCGUUGAAUGGAGUUUAUCAUG [G48C U55A U56G G88A A119C] | ≤ -4.2 |
| GGAUCUUCUCGAUCUAACAAAAAAGACAAAUCUGCCACAAAGCUUGAGCGGAUCUUCGGAUGCAGAGGCGGCAGCCUUCGGUGGCGCGAUAGCGCCAACGUUCUCAACUAUGACACGCAAAACGCGUGCUCCGUUCAAUGGAGUUUAUCAUG [A49C C51G G136C] | ≤ -4.2 |
| GGAUCUUCUCGAUCUAACAAAAAAGACAAAUCUGCCACAAAGCUUGAUAUCAUCUUCGAAUGCAGAGGCGGCAGCCUUCGGUGGCGCGAUAGCGCUAACGUUCUCAACUAUGACACGCAAAACGCGUGCUCCGUUGAAUUGAGUUUAUCAUG [G48U G50U G59A C96U G140U] | ≤ -4.2 |
| GGAUCUUCUCGAUCUAACAAAAAAGACAAAUCUGCCACAAAGCUUGAGCGCAUCUUCGGAUGUAGAGGCUGCAGCCCUCGGUGGCGCGAUAGCGCCAACGUUCUCAACUAUGACGCGCAAAACGCGUGCUCCGUUGAAUGGAGUUUAUCAUG [A49C C63U G70U U77C A115G] | ≤ -4.2 |
| GGAUCUUCUCGAUCUAACAAAAAAGACAAAUCUGCCACAAAGCUUGAUAGCAACUUCGGAUGCAGAGGCGGCAGCCUUCGGUGGUGCGAUAGCGCCAACGUUCUCAACUAUGACACGCAAAACGCGUGCUCCGUUGAAUGGAGUUUAUCAUG [G48U U53A C85U] | -1.94 |
| GGAUCUUCUCGAUCUAACAAAAAAGACAAAUCUGCCACAAAGCUUGACAGCAUCUUCGGAUGCAGAGGCGGCAGCCUUCGGUGGCGCGAUAGCGCCAACGUUCUCAACUAGGACACGCAAAACGCGUGCUCCGUUGAAUGAAGUUUAUCAUG [G48C U111G G141A] | ≤ -4.2 |
| GGAUCUUCUCGAUCUAACAAAAAAGACAAAUCUGCCACAAAGCUUGAGCGGAUCUUCGGAUGCUGAGGCGGCAGCCUUCGGUGGCGCUAUAGCGGCAAUGGUCUCAACUAUGACACGCAAAACGCGUGCUCCGUUGAAUGGAGUUUAUAAUG [A49C C51G A64U G88U C95G C99U U101G C149A] | ≤ -4.2 |
| GGAUCUUCUCGAUCUAACAAAAAAGACAAAUCUGCCACAAAGCUUGAGCGCCUAUUCGGAUGCAGAGGCGGCAUCGUUCGGUGGCGCGAUAGCGCCAACGUUCUCAACUAUGACACGCAAAACGUGUGCUCCGUUGAAUGGAGUUUAUCAUG [A49C A52C C54A G74U C76G C125U] | ≤ -4.2 |
| GGAUCUUCUCGAUCUAACAAAAAAGACAAAUCUGCCACAAAGCUUGAGCGCGUCUUCGGAUGCAGAGGCGGCAGCCGUCGGUGGCGCGAAAGCGCCAACGUUCUCAACUAUGACACGCAAAACGCGUGCUCCGUUGAAUGUAGUUUAUCAUG [A49C A52G U77G U90A G141U] | ≤ -4.2 |
| GGAUCUUCUCGAUCUAACAAAAAAGACAAAUCUGCCACAAAGCUUGACAGCAUCAUCGGAUGCAGAGGCGGCAGCCUUCGGUGGCGCGAUAGCGCCAACGUUCUCAACUAUGACACGCAAAUCGCGUGCUCCGUUGAAUGGAGUUUAUCAUG [G48C U55A A122U] | 0.121 |
| GGAUCUUCUCGAUCUAACAAAAAAGACAAAUCUGCCACAAAGCUUGAGCGCAUCUUCGGAUGCAGAGGCGGCAGGCUUCGGUGGCGCGAUUGCGCCAACGUUCUCAACUAUGACACGCAAAACGCGUGCUCCGUUGAAUGGAGUUUAUCGUG [A49C C75G A91U A150G] | ≤ -4.2 |
| GGAUCUUCUCGAUCUAACAAAAAAGACAAAUCUGCCACAAAGCUUGAGCGUAUCUUCGCAUGCAGAGGCGGCAGCCUUCGGUGGCGCGAUAGCGUCAACGUUCUCAACUAUGACACGCAAAACGCGUGCUGCGUUGAAUGGAGUUUAUCAUG [A49C C51U G59C C95U C131G] | ≤ -4.2 |
| GGAUCUUCUCGAUCUAACAAAAAAGACAAAUCUGCCACAAAGCUUGAGCGUAUCUUCGGAUGCAGAGGCGGCAGCCUUCGGUGGCGCGAUAGCGCCAACGUUCUCAACUAUGACACGCAAAACGCGUGCUCCAUUGAAUGGAUUUUAUCAUG [A49C C51U G133A G143U] | ≤ -4.2 |
| GGAUCUUCUCGAUCUAACAAAAAAGACAAAUCUGCCACAAAGCUUGAGCGCAUAAUCGGAUGCAGAGGCGGCUGCCAUCGGUGGAGCGAUAGCGCCAACGUUCUCAGCUAUGACACGCAAAACGCGUGCUCCGUUGAAUGGAGUUUAUCAUG [A49C C54A U55A A73U U77A C85A A107G] | ≤ -4.2 |
| GGAUCUUCUCGAUCUAACAAAAAAGACAAAUCUGCCACAAAGCUUGAUAGCGUCUUGGGAUGCAGAGGCGGCACCCUUCGGUGGCGCGAUAGCGCCAACGUUCUCAACUAUGUCACGCCAAACGCGUACUCCGUUGAAUGGAGUUUAUCAUG [G48U A52G C57G G74C A113U A119C G128A] | ≤ -4.2 |
| GGAUCUUCUCGAUCUAACAAAAAAGACAAAUCUGCCACAAAGCUUGAGCGCAUAUUCGGAUGCAGAGGCGGCAGCCUUCGGUGGCGCGAUAGCGCCAGCGUUCUCAACUAUGACACGCAAAACGGGUGCUCCGUUGAAUGGAGUUUAUCAUG [A49C C54A A98G C125G] | ≤ -4.2 |
| GGAUCUUCUCGAUCUAACAAAAAAGACAAAUCUGCCACAAAGCUUGAUAGCAACUUCGGAUGCAGAGGCGGCAGCCUUAGGUGGCGCGAUAGCGCCAACGUUCUGAACUAUGACACGCAAAACGCGUGUUCCGUUGAAUGGAGUUUAUCAUG [G48U U53A C79A C105G C129U] | ≤ -4.2 |
